This is one part of the list.

The assay addresses T1, MBP-FoxP1dN (Mus musculus, UniProt P58462 326-579).
T1 sequence: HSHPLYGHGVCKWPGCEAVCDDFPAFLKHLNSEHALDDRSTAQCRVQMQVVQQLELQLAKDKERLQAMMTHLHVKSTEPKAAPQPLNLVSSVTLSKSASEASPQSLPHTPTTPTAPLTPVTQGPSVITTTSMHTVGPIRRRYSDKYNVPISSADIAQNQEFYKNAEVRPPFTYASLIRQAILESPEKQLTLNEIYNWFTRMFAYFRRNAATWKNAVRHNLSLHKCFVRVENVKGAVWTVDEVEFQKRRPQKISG
As to the kind of experiment: PD-seq (MBP pull-down with sequencing); 20 mM Tris-HCl pH 7.5, 100 mM NaCl, 1.5 mM MgCl2, 0.4 uM protein, 0.1 uM dsDNA library, 30 min, room temperature, amylose pull-down; high values mean tight binding. Particulars: protein: recombinant; tags: His6-MBP; chain copies: 2; dsDNA, one strand shown. Summed up: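 Binding is reads-per-million enrichment of pull-down over input, with replicates pooled. It comes from 30 min room-temperature incubation in Tris pH 7.5 buffer with NaCl and MgCl2 of 0.4 µM His6-MBP-tagged, N-terminally truncated mouse FoxP3 or FoxP1 fragment from E. coli with 0.1 µM Klenow-filled degenerate double-stranded DNA library, followed by amylose resin capture, three washes and Illumina sequencing of the released DNA.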
With “GATGATTGTTCTCCCAGCTGATGAATTATTGTATTCGAGTAAACAAATTTTCCTAATCTTTCTGTTCAAGCGCCATCTAC”, the binding signal is 1.99 RPM ratio (pull-down/input).

“GATGATTGTTCTCCCAGCTGATGAATTACAACCGTCGAGTAAACAAATTTTCCTAATCTTTCTGTTCAAGCGCCATCTAC”: the binding signal is 1.18 RPM ratio (pull-down/input).

“GATGATTGTTCTCCCAGCTGATGAATTGGAGAGGTCGAGTAAACAAATTTTCCTAATCTTTCTGTTCAAGCGCCATCTAC”: the binding signal is 0.733 RPM ratio (pull-down/input).

In the case of “GATGATTGTTCTCCCAGCTGATGAATTCCGAGGATCGAGTAAACAAATTTTCCTAATCTTTCTGTTCAAGCGCCATCTAC”, the binding signal is 0.766 RPM ratio (pull-down/input).

As to “GATGATTGTTCTCCCAGCTGATGAATTCGAATCTTCGAGTAAACAAATTTTCCTAATCTTTCTGTTCAAGCGCCATCTAC”, the binding signal is 0.84 RPM ratio (pull-down/input).

“GATGATTGTTCTCCCAGCTGATGAATTCTCTAACTCGAGTAAACAAATTTTCCTAATCTTTCTGTTCAAGCGCCATCTAC”: the binding signal was 0.847 RPM ratio (pull-down/input).

Turning to “GATGATTGTTCTCCCAGCTGATGAATTGCTTTCATCGAGTAAACAAATTTTCCTAATCTTTCTGTTCAAGCGCCATCTAC”, the binding signal is 1.13 RPM ratio (pull-down/input).

With “GATGATTGTTCTCCCAGCTGATGAATTACCCTGATCGAGTAAACAAATTTTCCTAATCTTTCTGTTCAAGCGCCATCTAC”, the binding signal is 0.896 RPM ratio (pull-down/input).

On to “GATGATTGTTCTCCCAGCTGATGAATTTCCAGACTCGAGTAAACAAATTTTCCTAATCTTTCTGTTCAAGCGCCATCTAC”, for which the binding signal is 0.767 RPM ratio (pull-down/input).

As to “GATGATTGTTCTCCCAGCTGATGAATTGCAAACGTCGAGTAAACAAATTTTCCTAATCTTTCTGTTCAAGCGCCATCTAC”, the binding signal was 1.24 RPM ratio (pull-down/input).

As to “GATGATTGTTCTCCCAGCTGATGAATTCTAACACTCGAGTAAACAAATTTTCCTAATCTTTCTGTTCAAGCGCCATCTAC”, the binding signal was 0.951 RPM ratio (pull-down/input).

“GATGATTGTTCTCCCAGCTGATGAATTTTATGAGTCGAGTAAACAAATTTTCCTAATCTTTCTGTTCAAGCGCCATCTAC”: the binding signal was 1.03 RPM ratio (pull-down/input).

As to “GATGATTGTTCTCCCAGCTGATGAATTACACAGTTCGAGTAAACAAATTTTCCTAATCTTTCTGTTCAAGCGCCATCTAC”, the binding signal is 1.18 RPM ratio (pull-down/input).

Consider “GATGATTGTTCTCCCAGCTGATGAATTACTCCGTTCGAGTAAACAAATTTTCCTAATCTTTCTGTTCAAGCGCCATCTAC”, for which the binding signal is 0.991 RPM ratio (pull-down/input).

“GATGATTGTTCTCCCAGCTGATGAATTTATTCTGTCGAGTAAACAAATTTTCCTAATCTTTCTGTTCAAGCGCCATCTAC”: the binding signal was 1.12 RPM ratio (pull-down/input).

“GATGATTGTTCTCCCAGCTGATGAATTCCATTTCTCGAGTAAACAAATTTTCCTAATCTTTCTGTTCAAGCGCCATCTAC”: the binding signal was 0.817 RPM ratio (pull-down/input).

As to “GATGATTGTTCTCCCAGCTGATGAATTGGGTGATTCGAGTAAACAAATTTTCCTAATCTTTCTGTTCAAGCGCCATCTAC”, the binding signal was 0.95 RPM ratio (pull-down/input).

Take “GATGATTGTTCTCCCAGCTGATGAATTGATCTCATCGAGTAAACAAATTTTCCTAATCTTTCTGTTCAAGCGCCATCTAC”: the binding signal was 1.09 RPM ratio (pull-down/input).

For “GATGATTGTTCTCCCAGCTGATGAATTGTTAACATCGAGTAAACAAATTTTCCTAATCTTTCTGTTCAAGCGCCATCTAC”, the binding signal is 1.34 RPM ratio (pull-down/input).

As to “GATGATTGTTCTCCCAGCTGATGAATTTGGGAGTTCGAGTAAACAAATTTTCCTAATCTTTCTGTTCAAGCGCCATCTAC”, the binding signal was 0.877 RPM ratio (pull-down/input).

“GATGATTGTTCTCCCAGCTGATGAATTAGCGATATCGAGTAAACAAATTTTCCTAATCTTTCTGTTCAAGCGCCATCTAC”: the binding signal was 1.06 RPM ratio (pull-down/input).

Regarding “GATGATTGTTCTCCCAGCTGATGAATTGTTATATTCGAGTAAACAAATTTTCCTAATCTTTCTGTTCAAGCGCCATCTAC”, the binding signal is 1.57 RPM ratio (pull-down/input).

In the case of “GATGATTGTTCTCCCAGCTGATGAATTAGACTTTTCGAGTAAACAAATTTTCCTAATCTTTCTGTTCAAGCGCCATCTAC”, the binding signal was 0.874 RPM ratio (pull-down/input).

Regarding “GATGATTGTTCTCCCAGCTGATGAATTGGCTGCGTCGAGTAAACAAATTTTCCTAATCTTTCTGTTCAAGCGCCATCTAC”, the binding signal was 0.918 RPM ratio (pull-down/input).

For the sequence “GATGATTGTTCTCCCAGCTGATGAATTTAAAGAATCGAGTAAACAAATTTTCCTAATCTTTCTGTTCAAGCGCCATCTAC”, the binding signal was 0.944 RPM ratio (pull-down/input).

Take “GATGATTGTTCTCCCAGCTGATGAATTAAACCAGTCGAGTAAACAAATTTTCCTAATCTTTCTGTTCAAGCGCCATCTAC”: the binding signal was 0.929 RPM ratio (pull-down/input).

With “GATGATTGTTCTCCCAGCTGATGAATTTCAGCTCTCGAGTAAACAAATTTTCCTAATCTTTCTGTTCAAGCGCCATCTAC”, the binding signal was 0.758 RPM ratio (pull-down/input).

Turning to “GATGATTGTTCTCCCAGCTGATGAATTAGAATAGTCGAGTAAACAAATTTTCCTAATCTTTCTGTTCAAGCGCCATCTAC”, the binding signal is 0.964 RPM ratio (pull-down/input).

For “GATGATTGTTCTCCCAGCTGATGAATTGTATACCTCGAGTAAACAAATTTTCCTAATCTTTCTGTTCAAGCGCCATCTAC”, the binding signal is 1.66 RPM ratio (pull-down/input).

On to “GATGATTGTTCTCCCAGCTGATGAATTCGACAACTCGAGTAAACAAATTTTCCTAATCTTTCTGTTCAAGCGCCATCTAC”, for which the binding signal is 0.902 RPM ratio (pull-down/input).

Consider “GATGATTGTTCTCCCAGCTGATGAATTTAAAACCTCGAGTAAACAAATTTTCCTAATCTTTCTGTTCAAGCGCCATCTAC”, for which the binding signal was 0.793 RPM ratio (pull-down/input).

In the case of “GATGATTGTTCTCCCAGCTGATGAATTAAGCGATTCGAGTAAACAAATTTTCCTAATCTTTCTGTTCAAGCGCCATCTAC”, the binding signal was 0.851 RPM ratio (pull-down/input).

These data come from article PMC12820563, “FoxP3 forms a head-to-head dimer in vivo and stabilizes its multimerization on adjacent microsatellites”.
